“And” between values parts separate entries of the source, which are not always exact repeats. Identical values can stand only once.
B1: mAb10964 (antibody)
heavy: QVQLQESGPGLVKPSETLSLTCTVSGGSINNYYWIWIRQPPGKGLEWIGYIYHSGSTNYNPSLKSRVTISVDTSKNQFSLKVSSVTAADTAVYYCANMVRGVYEDDYWGQGTLVTVSS[human IgG1 constant region left out]
light: DIQMTQSPSSLSASVGDRVTITCRASQSISNYLNWYQQKPGKAPKLLIFAASSLRSGVPSRFSGSGSGTDFTLTISSLHPEDFATYYCQQNYNTPLTFGPGTKVDIKRTVAAPSVFIFPPSDEQLKSGTASVVCLLNNFYPREAKVQWKVDNALQSGNSQESVTEQDSKDSTYSLSSTLTLSKADYEKHKVYACEVTHQGLSSPVTKSFNRGEC
B2: mAb10920 (antibody)
heavy: QVQLVESGGGVVQPGRSLRLSCAASGFTFSYYGMHWVRQAPGKGLEWVAVIWYDGSNKFYADSVKGRFTISRDNSKNTLYLQMNSLRAEDTAVYYCAAARPGYYYGMDVWGQGTTVTVSS[human IgG1 constant region left out]
light: DIQMTQSPSSLSASVGDRVTITCRASQGISNYLAWFQQKPGKAPNSLIYAASSLQRGVPSKFSGSGSGTDFTLTISSLQPEDFATYYCQQYNSYPRTFGQGTKVEIKRTVAAPSVFIFPPSDEQLKSGTASVVCLLNNFYPREAKVQWKVDNALQSGNSQESVTEQDSKDSTYSLSSTLTLSKADYEKHKVYACEVTHQGLSSPVTKSFNRGEC
B3: mAb10921 (antibody)
heavy: EVQLVESGGGLVQPGGSLRLSCAASGITVSSNYMSWVRQAPGKGLEWVSVIYSGGSTFYADSVKGRFTISRHNSKNTLYLQMNSLRAEDTAVYYCARERNFDAFDIWGQGTMVTVSS[human IgG1 constant region left out]
light: DIQMTQSPSSVSASVGDRVTITCRASQGISSWLAWYQQKPGKAPKLLIYAASSLQSGVPSRFSGSGSGTDFTLTISSLQPEDFATYYCQQANSFPLFTFGPGTKVDIKRTVAAPSVFIFPPSDEQLKSGTASVVCLLNNFYPREAKVQWKVDNALQSGNSQESVTEQDSKDSTYSLSSTLTLSKADYEKHKVYACEVTHQGLSSPVTKSFNRGEC
B4: mAb10934 (antibody)
heavy: [about 100 residues left out]ARWDWYFDLWGRGTLVTVSS[human IgG1 constant region left out]
light: DIQMTQSPSSLSASVGDRVTITCQASQDIWNYINWYQQKPGKAPKLLIYDASNLKTGVPSRFSGSGSGTDFTFTISSLQPEDIATYYCQQHDDLPPTFGQGTKVEIKRTVAAPSVFIFPPSDEQLKSGTASVVCLLNNFYPREAKVQWKVDNALQSGNSQESVTEQDSKDSTYSLSSTLTLSKADYEKHKVYACEVTHQGLSSPVTKSFNRGEC
B5: mAb10966 (antibody)
heavy: EVQLVESGGGLVQPGGSLRLSCAASGLTVSSNYMSWVRQAPGKGLEWVSVIYSGGSTFYADSVKGRFTISRDNSKNTLYLQMNSLRPEDTAVYYCAREGRIAATGYGMDVWGQGTTVTVSS[human IgG1 constant region left out]
light: DIQMTQSPSSLSASVGDRVTITCQASQDISNYLNWYQQKPGKAPKLLIYDASNLGTGVPSRFSGSRSGTDFTFTISSLQPEDIATYYCHQYDNLPQTFGPGTKVDIKRTVAAPSVFIFPPSDEQLKSGTASVVCLLNNFYPREAKVQWKVDNALQSGNSQESVTEQDSKDSTYSLSSTLTLSKADYEKHKVYACEVTHQGLSSPVTKSFNRGEC
B6: mAb10954 (antibody)
heavy: EVQLVESGGGLVQPGGSLRLSCAASGITVSSNYMSWVRQAPGKGLEWVSLIYSGGSTYYADSVKGRFTISRDNSKNTLYLQMNSLRVEDTAVYYCARDHGMAAAGYNYWGQGTLVTVSS[human IgG1 constant region left out]
light: DIQMTQSPSSLSASVGDRVTITCQASQDINKYLNWYQQKPGKAPKLLIYDASNLETGVPSRFSGSGSGTDFTFTINSLQPEDFATYFCQQYDNLPPAFGQGTKVEIKRTVAAPSVFIFPPSDEQLKSGTASVVCLLNNFYPREAKVQWKVDNALQSGNSQESVTEQDSKDSTYSLSSTLTLSKADYEKHKVYACEVTHQGLSSPVTKSFNRGEC
B7: mAb10955 (antibody)
heavy: EVQLVESGGGLVQPGGSLRVSCAASGFTVSRNYMSWVRQAPGKGLEWVSVIYSGGSTFYADSVKGRFTISRDNSKNTLYLQMNSLRAEDTAIYYCARYIPRFDPWGQGTLVTVSS[human IgG1 constant region left out]
light: DIQMTQSPSSLSASVGDRVTITCQASQDISNYLNWFQQKPGRAPKLLIYDASNLETGVPSRFSGSGSGTDFTFTISSLQPEDIATYYCQQYDNLPITFGQGTRLEIKRTVAAPSVFIFPPSDEQLKSGTASVVCLLNNFYPREAKVQWKVDNALQSGNSQESVTEQDSKDSTYSLSSTLTLSKADYEKHKVYACEVTHQGLSSPVTKSFNRGEC
B8: mAb10938 (antibody)
heavy: EVQLVESGGGLVQPGGSLRLSCAVSGFTVSSNYMSWVRQAPGKGLEWVSLIYSGGSTFYADSVKGRFTISRHNSKNTLYLQMNSLRAEDTAVYYCAREGGYSYDYNYWGQGTLVTVSS[human IgG1 constant region left out]
light: DIQMTQSPSSLSASVGDRVTITCQASQDIRNYLNWYQQKPGKAPKLLIYDASNLETGVPSRFSGIGSGTDFTFTISSLQPEDIATYYCQQYDNLPITFGQGTRLEIKRTVAAPSVFIFPPSDEQLKSGTASVVCLLNNFYPREAKVQWKVDNALQSGNSQESVTEQDSKDSTYSLSSTLTLSKADYEKHKVYACEVTHQGLSSPVTKSFNRGEC
B9: mAb10935 (antibody)
heavy: EVQLVESGGGLVQPGGSLRLSCAASGFTVSSNYMSWVRQAPGKGLEWVSLIYSGGSTYYADSVKGRFTISRHNSKNTLYLQMNSLRSEDTAVYYCARVPLGDYYYGMDVWGQGTTVTVSS[human IgG1 constant region left out]
light: DIQMTQSPSSLSASVGDRVTITCQASQDINKYLNWYQQKPGKAPKLLIYDASNLETGVPSRFSGSGSGTDFTFTISSLQPEDIATYYCQQSDNLPLTFGGGTKVEIKRTVAAPSVFIFPPSDEQLKSGTASVVCLLNNFYPREAKVQWKVDNALQSGNSQESVTEQDSKDSTYSLSSTLTLSKADYEKHKVYACEVTHQGLSSPVTKSFNRGEC
B10: mAb10930 (antibody)
heavy: EVQLVESGGGLVQPGRSLRLSCAASGFTFDDYAMYWVRQAPGKGLEWVSGISWNSGSIGYADSVKGRFTISRDNAKNSLYLQMNSLRAADTALYYCAKDKDWNSRGYYYYGMDVWGQGTTVTVSS[human IgG1 constant region left out]
light: [about 100 residues left out][about 100 residues left out]

Biological target: SARS-CoV-2 Spike Protein (RBD)(R319-F541).mmH (SARS-CoV-2)
Assay: Luminex, supernatant
Settings: remark: other sources report otherwise

Binder | MFI
B1 | 31800 MFI and 28900 MFI
B2 | 34800 MFI and 34400 MFI
B3 | 25000 MFI and 23600 MFI
B4 | 33800 MFI and 32600 MFI
B5 | 30900 MFI and 27400 MFI
B6 | 30400 MFI and 28300 MFI
B7 | 29600 MFI and 28500 MFI
B8 | 29400 MFI and 27100 MFI
B9 | 34900 MFI and 32600 MFI
B10 | 25100 MFI
